B1: tRNA (parent)
chain: CUCUCGGUAGCCAAGUUGGUUUAAGGCGCAAGACUUUAAUUUAUCACUACGAAAUCUUGAGAUCGGGCGUUCGACUCGCCCCCGGGAGAUUUUUUCCUCGAGCAA

This sample is rich in variants without activity.

The variants in this data set derive from B1. Put plainly: nonsense suppression (GFP-seq) (ratio to wild type); higher = more function; SUP4oc tRNA, yeast GFP reporter sort-seq. The procedure, abridged:
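Sorted GFP/RFP bins of yeast were each Illumina-sequenced with a phred ≥30 cutoff; the cells held a genome-integrated ochre-suppressor tRNA variant from a library with ~3% random mutations, a galactose-driven GFP ochre reporter, and RFP. Culture was in raffinose/galactose medium containing 80 mg/L adenine. Nonsense suppression, termed GFPSEQ, is the median GFP/RFP of the bins weighted by each variant's estimated cell share per bin, relative to the unmutated parent tRNA, for variants reaching ≥100 reads and ≥30 cells.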
Consider C27A G88U, for which the nonsense suppression is at most 0.026. Take C3A C27U A62G: the nonsense suppression was at most 0.026. The value for G19U U22C U70C C79G was at most 0.026. As to U8C A13C, the nonsense suppression is at most 0.026. In the case of U17C C34G C81A, the nonsense suppression was at most 0.026. Under A9G C11U C80G stands at most 0.026; under C56G A74U, at most 0.026; under C3U G19U, at most 0.026.

Take G32C C34A: the nonsense suppression was at most 0.026. The value for U17A U21A G73C was at most 0.026; that for U71G G73C was at most 0.026; that for U4G U63A G65C was at most 0.026. For C34U G65A U70A, the nonsense suppression is at most 0.026.

Take G6A A13G U20G C34A G73A: the nonsense suppression was found to be 0.0802.

Regarding A23U U57A, the nonsense suppression was at most 0.026. The value for G10U C11U C27A C34G was at most 0.026; that for A62U U71C A74C U76C was at most 0.026; that for U71G C77A C79U A87U was at most 0.026. As to G10A A74C, the nonsense suppression is at most 0.026. Take G15A A30U: the nonsense suppression was at most 0.026.

Regarding A14C G59A U70G, the nonsense suppression was at most 0.026. Under G6C A9C A14U U22C stands at most 0.026. The value for G32C U71A was at most 0.026; that for G78C G84A was at most 0.026.

On to U55C U63C, for which the nonsense suppression worked out at 0.156.

Turning to G18U A24C G69A C75G, the nonsense suppression is at most 0.026. For the variant G32C U76G, the nonsense suppression was at most 0.026. Under C5U C11U U76A C79G stands at most 0.026; under C56A G88C, at most 0.026; under G10C G19U A31C G61A C68U C80G, at most 0.026. Under A9G C29U C75G stands 0.252; under C1U G6U G7A C12U G59A, at most 0.026. Under C34U U57C G61A stands at most 0.026; under G28U U35A G86A, at most 0.026; under U55G C56A A74U A87G, at most 0.026. With C1U G59A, the nonsense suppression was at most 0.026. The value for U63A C77G was at most 0.026.

For the variant C1A A54G U76G, the nonsense suppression is at most 0.026.

Turning to C1A A24C C82U A87U, the nonsense suppression was at most 0.026.

Regarding A13C G59A G61U, the nonsense suppression is at most 0.026. As for G28C C29G U35A U76G, the nonsense suppression was at most 0.026. C11G U21A C27G U71A: the nonsense suppression was at most 0.026. The value for A24C G73U G78C was at most 0.026.

With U4C A9U A54U G69A C81G, the nonsense suppression is at most 0.026. Under G15C U22G A30C G84C stands at most 0.026; under G65C G85U, at most 0.026; under C3A G66C C75G, at most 0.026. Under C27G C82G stands at most 0.026; under U16C U21G G25A A31G C34A, at most 0.026.

U2A G59A C80U: the nonsense suppression is at most 0.026. The value for A14C U20A C79G was at most 0.026; that for G18U C56A G69C was at most 0.026; that for A62C C79G G86U was at most 0.026.

Turning to A30G U35G A62G G66C G78A, the nonsense suppression is at most 0.026. The value for C3A C29U A33C A74G was at most 0.026.

Turning to A62U, the nonsense suppression was found to be 0.193. C27U C81G: the nonsense suppression is at most 0.026. The value for U4C U17G U76A C83A was at most 0.026; that for A9C A23U U57G G86U was at most 0.026; that for A62U C75A G88U was at most 0.026. The value for A14C G28U G67C G88C was at most 0.026; that for A9U G15U A30U A31G G69U G86C was at most 0.026; that for U2G C3A G15U U55A G59C was at most 0.026.

On to A24G C68U, for which the nonsense suppression was at most 0.026. Take C11G C29G C72U: the nonsense suppression is at most 0.026. Under U2A G85C stands at most 0.026; under G26A C56A G69U, at most 0.026. G19C G61A: the nonsense suppression is at most 0.026.

As to U17C A60C C81U, the nonsense suppression was at most 0.026. The value for A30C A89G was at most 0.026; that for A33G U70A was at most 0.026. Under U4G A33G G73U stands at most 0.026; under A9G U22G, 0.254. Under C1G U8C C56A stands at most 0.026; under G6C C34A, at most 0.026. As for U21A C29G U55G U71C, the nonsense suppression is at most 0.026. In the case of G6U C12G C82U C83A, the nonsense suppression was at most 0.026. Under G6U U17C U21A G26A G32U G59A G65A G85A stands at most 0.026; under U35G C72G, at most 0.026. The value for U63G G65U C75U was at most 0.026; that for G10A C11G U76G was at most 0.026.

As for G10C C29G A74G C80U, the nonsense suppression is at most 0.026. Under G10A G84C stands at most 0.026. For G61C C80U A87U, the nonsense suppression was at most 0.026.

As to U57A U71G, the nonsense suppression was at most 0.026.

Regarding A24U A30C C64A, the nonsense suppression was at most 0.026. Under A24U C34G stands at most 0.026; under U8G A30U C75U, at most 0.026. The value for U58G G59U was at most 0.026. Under G26U U63C C81U G85A stands at most 0.026; under U2G U22G U57A G86C, at most 0.026; under U76G C79G G88A, at most 0.026. For C29G A31G U70A U71G G84U, the nonsense suppression was at most 0.026. The value for A33U C72U C82U was at most 0.026. The value for C11G U22C was at most 0.026; that for U76C G78U was 0.0507; that for C11G U71A G86C was at most 0.026. With C11A G15C U22A, the nonsense suppression was at most 0.026.

As to A24C G25U A31G, the nonsense suppression is at most 0.026. The value for A23G A54G G73A was at most 0.026; that for G26U C29A A54U C79G was at most 0.026. The value for G61U C64U was at most 0.026; that for C64A C80U was at most 0.026; that for U57C A62G G65A was at most 0.026. The value for C5A G7C was at most 0.026.

For the variant U20G A23U A33G, the nonsense suppression is at most 0.026.

For C5A A9U U70G A89C, the nonsense suppression was at most 0.026.

Turning to A9G C75A, the nonsense suppression is 0.762. The value for U35A G69A was at most 0.026; that for A31G G61C was 0.275. The value for U8G U21G A30G C72A G78U was at most 0.026. The value for C1G A54G U63G U70G was at most 0.026; that for G59U G66A C75A was at most 0.026. Regarding C3U C5A G61C U70C, the nonsense suppression is at most 0.026.

Turning to U35A U71A A87C, the nonsense suppression is at most 0.026.

As for G25U G32U, the nonsense suppression was at most 0.026. For G26A U55A C68U, the nonsense suppression is at most 0.026. Take A14U A31G U35G G61C: the nonsense suppression is at most 0.026. Under G19A U21G G25U stands at most 0.026; under A31U U55C A74G G78A G86C, at most 0.026. Under U8C A31G stands 0.0327. Under C1U U55G U58G stands at most 0.026.

For C29G C56A U57C G61U C75G, the nonsense suppression is at most 0.026.

With C80U G86A, the nonsense suppression is at most 0.026. The value for U21G U22C U71A was at most 0.026. For the variant U21C G69C, the nonsense suppression was at most 0.026.

Take U16C G28U U63A: the nonsense suppression was at most 0.026. As for A62G G66C, the nonsense suppression was at most 0.026. For G32A C83A A87C, the nonsense suppression is at most 0.026. The value for G7U C27G G69U was at most 0.026; that for U4G A31G G67U C80A was at most 0.026; that for G85A A87U was 0.19. The value for A13G A30G was 0.105; that for G15C G65A G86C was at most 0.026; that for G7U U22C C27A G73C was at most 0.026. The value for C3G C29U A87G was at most 0.026; that for G28C A30C C68G was at most 0.026; that for U21G A31G was 0.77.

As to C34U C56U G88A, the nonsense suppression was at most 0.026. Regarding C11U A24C A54G, the nonsense suppression is at most 0.026.

Take U8A A31U U55A: the nonsense suppression is at most 0.026. As to A9C C56U A62U, the nonsense suppression is at most 0.026.

Take C29G U70A C79A: the nonsense suppression was at most 0.026. As for G6U C81A, the nonsense suppression was at most 0.026.

G18A G73U: the nonsense suppression was at most 0.026. The value for U16A U17G A31C U58C G78C was at most 0.026. As for U4C G15A, the nonsense suppression was determined as 0.746. For the variant C5U G85A, the nonsense suppression was 0.08.

With A14U A33U C34G G59C, the nonsense suppression was at most 0.026. The value for U8G A33U A60U C80A was at most 0.026; that for G7A G86C was at most 0.026; that for C5G U8C A9U U17C U57G C79U was at most 0.026. The value for C3G G6A C83G was at most 0.026. The value for G10C A14G G18A G67A was at most 0.026; that for A30C A54U A60G A74U was at most 0.026; that for A31U C83A was at most 0.026. Take A23U G65C C72A: the nonsense suppression is at most 0.026. Under C27A U55G G61A C83G stands at most 0.026; under A9G C34U, at most 0.026; under A24U U35G, at most 0.026. Take A13G G25C G61U U76C C81U: the nonsense suppression was at most 0.026. As to C1U U2C C11G G69C, the nonsense suppression is at most 0.026.

In the case of U17G A30U G66C C82U, the nonsense suppression is at most 0.026.

As to G67A C77A, the nonsense suppression is at most 0.026. The value for C12A A30U C75G was at most 0.026; that for U2C G18U G32U G65U U71C was at most 0.026. Under U21C A30G U70G stands at most 0.026.
